Earlier results as cited in US20100015147A1 (priority 2001, published 2010).

Tested on: influenza A and B viruses
Settings: cited from earlier work

SMILES | effect on virus replication
CCOC(=O)C1=C[C@@H](OC(CC)CC)[C@H](NC(C)=O)[C@@H](N)C1 [oseltamivir] | inhibit replication of both influenza A and B viruses
CC(=O)N[C@H]1[C@H]([C@H](O)[C@H](O)CO)OC(C(=O)O)=C[C@@H]1N=C(N)N [zanamivir] | inhibit replication of both influenza A and B viruses
